About 260 (0.074%) of roughly 350,000 compounds were called active. Inconclusive means that the source gave no clear call. Such entries were picked first, then a sample of the others. The call rests on the fitted dose curve; in most records, active means well fitted inhibition curve with a large enough effect; inconclusive means small, poorly fitted or top-dose-only effect; inactive means no such curve, though single readings can be large or run the other way. Potencies beside an inconclusive call are fits to weak or partial responses and may not hold up.
Target: Ferritin light chain (Equus caballus) (UniProt P02791)
UniProt P02791, sequence (P02791 whole entry, looked up): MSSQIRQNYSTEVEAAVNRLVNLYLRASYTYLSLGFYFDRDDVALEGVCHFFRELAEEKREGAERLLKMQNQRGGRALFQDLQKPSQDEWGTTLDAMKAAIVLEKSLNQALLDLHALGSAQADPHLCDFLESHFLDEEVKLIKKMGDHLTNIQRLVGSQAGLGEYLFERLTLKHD
Experiment: qHTS Assay for Identification of Novel General Anesthetics; further: nearly all actives have a fitted effect of over 20% in size
Conditions: apoferritin/1-aminoanthracene competitive binding, fluorescence; activity change, negative = displacement: at 77.5 µM (top of the series)
Method in brief: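 Horse-spleen apoferritin (10 uM) in 50% saturated 1-aminoanthracene in PBS was incubated 10 min at room temperature with compound. Fluorescence (ex 380, em 535 nm) was normalized to free and bound 1-AMA, with concentration-response fitted by a four-parameter Hill equation.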
On the % scale 0 is the no-effect control and ±100 the full control effect; potency means the concentration at half of the fitted maximal effect; tags describe the fitted curve by direction and shape.

Question: Which Potency does the source give for `O=C(Nc1cccc(NC(=O)c2cccs2)c1)c1ccc(F)cc1` here?
Answer: The Potency was inconclusive: 50.1 µM [inhibitor, single point].

Question: How did the “activity change, negative = displacement” value turn out when `COc1ccc2c(c1)CCc1c(C(=O)Nc3c(C)nn(Cc4ccc(Cl)cc4)c3C)noc1-2` was run?
Answer: Its value is inactive: -11.9%.

Question: With `NNC(=O)c1ccc(Oc2cc(Cl)cc(Cl)c2)o1` as the compound, how does the Potency read?
Answer: The Potency was inconclusive: 31.6 µM [inhibitor, single point].

Question: For `O=C1C=C(c2ccccc2)C(=O)N1Nc1ccccc1`, which Potency is on record?
Answer: The Potency was inconclusive: 50.1 µM [inhibitor, single point].

Question: `Cc1ccccc1/C=N/NC(=O)Cc1ccc(Cl)cc1` was tested. Which Potency did it give?
Answer: The Potency was inconclusive: 20 µM [inhibitor, partial curve].

Question: For `NNC(=O)CCC(=O)Nc1ccccc1`, which Potency is on record?
Answer: Its Potency is inconclusive: 20 µM [inhibitor, partial curve].

Question: How did the Potency turn out when `Cn1c(N)c(C(=O)COC(=O)c2cc(C(F)(F)F)nc3ccccc23)c(=O)n(Cc2ccccc2)c1=O` was run?
Answer: Its Potency is “inactive”.

Question: Which “activity change, negative = displacement” value does the source give for `Cc1ccc(C)c(Cn2c3ccccc3c3cnn(CC(=O)NCC(C)c4ccccc4)c(=O)c32)c1` (centres undefined) here?
Answer: The value was inactive: 4.41%.

Question: For `Cc1ccc(Cl)cc1NC(=O)Cn1nc(-c2cccs2)ccc1=O`, which Potency is on record?
Answer: The Potency was inconclusive: 50.1 µM [inhibitor, single point].

Question: How did the Potency turn out when `COc1cccc(NC(=O)CSc2nccn2Cc2ccc3c(c2)OCO3)c1` was run?
Answer: The Potency was inconclusive: 56.2 µM [inhibitor, single point].

Question: Which Potency does the source give for `C=CCNC(=S)NNC(=O)c1ccc(OCC(C)C)cc1` here?
Answer: Its Potency is inconclusive: 20 µM [inhibitor, partial curve].

Question: With `CCc1nnc(NC(=O)c2ccc(COc3ccc(C)cc3)o2)s1` as the compound, how does the “activity change, negative = displacement” value read?
Answer: Its value is inactive: 5.79%.

Question: For `O=[N+]([O-])c1cc(/C=N/O)ccc1N1CCCC1`, which Potency is on record?
Answer: The Potency was inconclusive: 31.6 µM [inhibitor, single point].

Question: For `COC(=O)COc1ccc(S(=O)(=O)NCCC2=CCCCC2)cc1`, which Potency is on record?
Answer: Its Potency is inconclusive: 39.8 µM [inhibitor, partial curve].

Question: `CCOC(=O)c1cccc(NC(=O)c2cc3c(=O)n(Cc4cccnc4)ccc3nc2C)c1` was tested. Which Potency did it give?
Answer: Its Potency is inconclusive: 3.16 µM [inhibitor, partial curve, poor fit].

Question: How did the Potency turn out when `COC(=O)C1=C(C)NC(=O)/C1=C\c1cc(C)n(-c2cccc(C)c2)c1C` was run?
Answer: The Potency was inconclusive: 35.5 µM [inhibitor, partial curve].

Question: For `Cc1ccc(C(=O)c2cn(Cc3cccc(F)c3)c3nc(C)ccc3c2=O)cc1`, which Potency is on record?
Answer: The Potency was inconclusive: 22.4 µM [inhibitor, partial curve].

Question: Which “activity change, negative = displacement” value does the source give for `COc1ccc(-c2c(NC(C)=O)n(C)c3ccccc3c2=O)cc1` here?
Answer: The value was inactive: -3.88%.

Question: With `N/C(Cc1cccs1)=N\OC(=O)COc1ccccc1Cl` as the compound, how does the Potency read?
Answer: The Potency was inconclusive: 14.1 µM [inhibitor, partial curve].
